Source: PubChem BioAssay AID1347071 (National Center for Advancing Translational Sciences (NCATS), 2019)
Among all 410,000 compounds or so, about 260 (0.063%) were called active. The inconclusive results got no clear call from the source; some entries with a clear call stand among them for comparison. The call rests on the fitted dose curve; in most records, active means well fitted activation curve with a large enough effect; inconclusive means small, poorly fitted or top-dose-only effect; inactive means no such curve, though single readings can be large or run the other way. No potency is given beside an inconclusive call; the fits are too rough.

Test: qHTS for compounds that reverse cellular toxicity of Amyloid beta (A-beta) peptide in yeast: Primary Screen; further: nearly all actives have a fitted effect of over 55% in size
Details: yeast expressing A-beta42, growth rescue, OD600, 48 h; growth rescue: at 46.1 µM (top of the series), 0% DMSO, 100% iron-clioquinol control
Procedure, shortened: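 Yeast A-beta toxicity model in growth medium with pinned compounds, 48 h at 30 C; growth read as absorbance at 600 nm. Normalized to FeCl3/clioquinol equimolar mix (positive) and DMSO (negative).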
Potency means the concentration at half of the fitted maximal effect; tags describe the fitted curve by direction and shape.

Row | SMILES | Potency | growth rescue
1 | COc1ccc2c(c1)C1=C(CC2)C(c2ccc(C)cc2)NC(=S)N1 (centres undefined) | inconclusive [activator, full curve] | 
2 | CC(C)CC(=O)NC(=S)Nc1ccc(N2CCCC2)c(Cl)c1 | inconclusive [activator, partial curve, poor fit] | 
3 | CCn1cc2nc(SCC(=O)Nc3ccc(OC)cc3OC)n(Cc3ccc(OC)cc3)c(=O)c2n1 | inconclusive [activator, single point] | 
4 | O=C(NC(=S)Nc1ccc(F)c(Cl)c1)C1CC1 | inconclusive [activator, partial curve, poor fit] | 
5 | O=C1Nc2ccc(Br)cc2C1Cc1ccccc1F (centres undefined) | inconclusive [activator, partial curve] | 
6 | O=C(NC(=S)Nc1ccccc1O)c1ccc(Cl)cc1Cl | inconclusive [activator, single point] | 
7 | O=C(NCCC1=CCCCC1)C1CC(=O)N(C2CCCCC2)C1 (centres undefined) | inconclusive [activator, partial curve, poor fit] | 
8 | Cc1ccc(-n2ncc3c(NNC(=O)Cc4ccccc4)ncnc32)cc1 | inconclusive [activator, single point] | 
9 | CCc1n[nH]c2c1/C(=N\O)CC(c1ccccc1)C2 (centres undefined) |  | inactive: -4.27%
10 | O=C(Nc1cc(C(F)(F)F)ccc1-n1cncn1)c1ccc(Cl)cc1 |  | inactive: -15.1%
11 | COc1ccc(NC(=O)C2=C(C)Nc3nc(SCc4ccc(C)cc4C)nn3C2c2cccc(OC)c2OC)cc1 (centres undefined) |  | inconclusive: -21.1% [activator]
12 | COc1ccccc1C1CCN(C(=S)Nc2ccc(Br)cc2)CC1 | inconclusive [activator, partial curve, poor fit] | 
13 | CCc1nc2c(OCc3ccc(OC(F)F)cc3)cccn2c1N(C)C(=O)c1ccc(OC)cc1 | inconclusive [activator, single point] | 
14 | Cc1ccc(OCC(=O)NNC(=S)NC(=O)c2ccc(Br)o2)c(C)c1 | inconclusive [activator, full curve] | 
15 | Cc1[nH]c2ccccc2c1/C=N/n1cnnc1 |  | inactive: 0%
16 | Cc1ccc(-c2nc3ccc(Cl)cn3c2Cc2cccc(Cl)c2)cc1 |  | inactive: -11.3%
17 | CCOc1c(CC2C(=O)Nc3ccc(Br)cc32)cccc1OC (centres undefined) |  | inactive: 3.4%
18 | Cc1nc(N2CCOCC2)c2c(C(=O)N3CCN(c4cc(Cl)ccc4C)CC3)c(C)oc2n1 |  | inactive: 7.2%
19 | S=C(NCCc1ccccc1)N1CCCCC1 | inconclusive [activator, single point] | 
20 | Cc1cccc(C)c1N1CCN(S(=O)(=O)N2CCCCC2)CC1 | inconclusive [activator, full curve, poor fit] | 
21 | Cc1ccccc1NC(=O)c1ccc(Cl)c(S(=O)(=O)N2CCCCCC2)c1 | inconclusive [activator, single point] | 
22 | COc1ccc(-n2nnnc2SCC(=O)NC2CC2)cc1 | inconclusive [activator, single point] | 
23 | O=[N+]([O-])c1ccc(N2CCN(C(=S)NC3CCCCC3)CC2)cc1 | inconclusive [activator, partial curve, poor fit] | 
24 | Cc1cc(C(=O)NNc2ccc(C(C)C)cc2)n(C(C)(C)C)n1 | inconclusive [activator, partial curve, poor fit] | 
25 | O=C(NC(=S)Nc1ccccn1)c1cccc([N+](=O)[O-])c1 | inconclusive [activator, single point] | 

Row | SMILES | Potency | growth rescue
26 | O=[N+]([O-])c1ccc(Sc2ccncn2)c([N+](=O)[O-])c1 |  | inactive: -57.1%
27 | Fc1ccc(CCNC(=S)Nc2ccc(F)c(Cl)c2)cc1 | inconclusive [activator, single point] | 
28 | N#CC1(N2CCN(C(=O)c3ccccc3)CC2)CCCCC1 |  | inactive: -11.3%
29 | Cc1nc2ccc(NC(=O)C3(C)CCCN(C(C)C)C3)cc2o1 (centres undefined) |  | inactive: -17.3%
30 | CCOC(=O)c1sc2nc[nH]c(=O)c2c1C |  | inactive: -3.48%
31 | S=C(Nc1ccc(Cl)cc1)Nc1ccc2c(c1)OCCO2 | inconclusive [activator, partial curve] | 
32 | CCOc1ccc(NC(=O)CCSc2ccc(C)cc2)cc1 | inconclusive [activator, partial curve, poor fit] | 
33 | C=CCNc1nc(Nc2ccccc2F)nc(OCC)n1 | inconclusive [activator, partial curve, poor fit] | 
34 | CCOc1cc(CNn2cn[nH]c2=S)cc(Cl)c1OCc1ccccc1F | inconclusive [activator, full curve] | 
35 | CCOC(=O)n1c2ccccc2c(=O)n1CCO |  | inactive: -1.41%
36 | CC(=O)Nc1nc2ccccc2n1Cc1ccc(Cl)cc1 | inconclusive [activator, single point] | 
37 | CC(NC(=S)NC(=O)c1ccccc1Br)c1ccccc1 (centres undefined) | inconclusive [activator, partial curve, poor fit] | 
38 | C=CC[n+]1ccc(/C=C2\C=Cc3cc(C)ccc3N2CC)c2ccccc21 |  | inactive: -55.5%
39 | O=C(NCc1ccc2c(c1)OCO2)c1ccc(CSCc2ccc(Cl)cc2)o1 |  | inactive: -3.41%
40 | CCc1nnc(NC(=O)c2cc(Cl)ccn2)s1 | inconclusive [activator, single point] | 
41 | CC1(C(=O)N2CCN(c3ccccc3)CC2)CC1(Cl)Cl (centres undefined) |  | inactive: 13.7%
42 | O=C1C(=O)c2ccc(-c3ccccc3)cc2-c2ccccc21 |  | inactive: -17%
43 | CC(=O)N1CCC2(CC1)C/C(=N\NC(=S)Nc1ccccc1F)c1cc(O)ccc1O2 | inconclusive [activator, partial curve] | 
44 | C=CCNC(=O)/C(C#N)=C\c1cc(Cl)c(OCC)c(OC)c1 | inconclusive [activator, single point] | 
45 | C=CCNC(=S)NN=C1CCCCCCC1 | active: 8.91 µM | 
46 | Cn1c2ccccc2c2nnc(SCC(=O)Nc3cccc(C(=O)O)c3)nc21 | inconclusive [activator, single point] | 
47 | Oc1ccc(C2C[C@H]3CC[C@@H]2C3)cc1O (some centres undefined) | inconclusive [activator, partial curve, poor fit] | 
48 | Cc1ccc(S(=O)(=O)N2CCOCC2)cc1C(=O)Nc1nc(-c2cccnc2)cs1 |  | inactive: 10.8%
49 | COc1cc(-c2nnc(SCC(=O)Oc3ccccc3Cl)o2)cc(OC)c1OC | inconclusive [activator, partial curve, poor fit] | 
50 | COc1ccccc1C(=O)Nc1cccc2cccnc12 |  | inactive: -26.9%

Row | SMILES | Potency | growth rescue
51 | Nc1ccccc1SCC(O)Cn1ccc2ccccc21 (centres undefined) |  | inactive: 19.4%
52 | O=[N+]([O-])c1cc(S(=O)(=O)N2CCCC2)ccc1N/N=C1/CCCc2ccccc21 |  | inactive: 0.38%
53 | Cn1c(=O)c2c(nc(Oc3cccc(Br)c3)n2C)n(C)c1=O | inconclusive [activator, full curve, poor fit] | 
54 | CC(C)(C)OC(=O)CNC(=O)c1[nH]cnc1C(=O)Nc1ccc(Cl)cc1 | inconclusive [activator, single point] | 
55 | O=C(O)/C=C/c1ccc2c(-c3ccccc3)onc2c1 | inconclusive [activator, partial curve, poor fit] | 
56 | COc1ccc(/C(C)=N/NC(=S)NCCc2ccccc2)cc1 | active: 12.6 µM | 
57 | COc1ccccc1-c1nnc(SCC(=O)c2ccc(F)cc2)n1-c1ccccc1 |  | inactive: 14%
58 | O=C(NC(=S)NNC(=O)[C@H]1C[C@@H]1c1ccccc1)c1ccc(F)cc1 | inconclusive [activator, full curve, poor fit] | 
59 | CC(=O)Nc1cc(C(=O)N2CCc3ccccc3C2)ccc1Sc1ccc(C)cc1 | inconclusive [activator, full curve, poor fit] | 
60 | CCCCCc1ccc(C(=O)CCCC)c(=S)[nH]1 | inconclusive [activator, partial curve, poor fit] | 
61 | COc1ccc(S(=O)(=O)N2CCC3(CC2)CC(=O)c2ccccc2O3)cc1 |  | inactive: -4.49%
62 | CCc1ccc(NC(=S)Nc2ccc3[nH]c(=O)[nH]c3c2)cc1 | inconclusive [activator, single point] | 
63 | CCCCN1CC(=O)N2[C@H]3c4cc(Cl)ccc4OC[C@@H]3[C@H](c3ccccc3)[C@]2(C)C1=O | inconclusive [activator, single point] | 
64 | Cc1cc(NC(=O)CSc2nc(CCC3CCCC3)nc3ccccc23)no1 | inconclusive [activator, full curve, poor fit] | 
65 | O=C1NC(c2ccccc2)C(c2ccccc2)N1 (centres undefined) |  | inactive: 4.91%
66 | O=[N+]([O-])c1cc(C(F)(F)F)ccc1NCCc1c[nH]c2ccc(O)cc12 |  | inactive: -10.4%
67 | Cc1ccc2ccccc2c1C(O)c1ncc(-c2ccc(C(F)(F)F)cc2)[nH]1 (centres undefined) | inconclusive [activator, single point] | 
68 | COC(=O)c1ccc(NC(=S)NC(=O)C2CCC2)cc1 | active: 8.91 µM | 
69 | CCCCSCCCNC(=O)c1cn(CC)c2ccc(S(=O)(=O)N3CCCCCC3)cc2c1=O |  | inactive: 5.65%
70 | Cc1noc(C)c1S(=O)(=O)Nc1ccc(C(=O)Nc2ccc(Br)cc2)cc1 |  | inactive: -8.93%
71 | COc1ccccc1NC(=O)CSc1nnc2c3ccccc3n(C(C)C)c2n1 |  | inactive: 20%
72 | NC(=O)COC(=O)c1sc2ccccc2c1Cl | inconclusive [activator, single point] | 
73 | CC(C)C(=O)Nc1nc(-c2ccccc2)ns1 | inconclusive [activator, partial curve] | 
74 | COC(=O)c1cc(NS(=O)(=O)c2ccc(C(C)C)cc2)ccc1N1CCOCC1 | inconclusive [activator, partial curve, poor fit] | 
